From patent US11178870B2 (priority 2017, dated 2021)

Assays:
[1] = tested on: Magnaporthe grisea; assay type: in vivo
[2] = tested on: Phytophthora infestans; assay type: in vivo
[3] = tested on: Colletotrichum orbiculare
[4] = class of control value, Table 7

| SMILES | control value, Test A (blast on rice) ([1]; Table 7, Test A) | control value, Test F (late blight on tomato) ([2]; Table 7, Test F) | control value, Test H (anthracnose on cucumber) ([3]; 250 ppm sprayed (2.5 ml/pot) before inoculation, assessed 6 to 10 days after inoculation) | Test A control value (blast on rice) [1, 4] | Test F control value (late blight on tomato) [2, 4] | Test H control value (anthracnose on cucumber) ([3]; 250 ppm spray, 2.5 ml/pot, investigated 6 to 10 days after inoculation) |
| --- | --- | --- | --- | --- | --- | --- |
| CCn1c(-c2ccc(F)cc2C)c(-n2cc(C)cn2)cc(Br)c1=O [Compound 370] | H (H shows the control value more than 50%) | L (L shows the control value of 50% or less) | L (L shows the control value of 50% or less) | – | – | – |
| CCn1c(-c2ccc(SC)cc2F)c(-n2ncc(C)c2Cl)cc(Br)c1=O [Compound 373] | – | – | – | H (H shows the control value more than 50%) | L (L shows the control value of 50% or less) | H (H shows the control value more than 50%) |
